In paper PMC9911399, “Two distinct binding modes provide the RNA-binding protein RbFox with extraordinary sequence specificity”:
Residue numbers refer to the chain shown, from its start. The list shows a part of the results.

T1: RBFOX1 RRM (Homo sapiens, UniProt Q9NWB1 109-208)
T1 sequence: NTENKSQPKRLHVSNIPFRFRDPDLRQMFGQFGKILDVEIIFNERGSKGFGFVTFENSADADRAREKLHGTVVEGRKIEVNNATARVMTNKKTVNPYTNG

B1: AGCGAAC (DNA:RNA)
RNA: GGGAGACCGGAAUUCAGAUUGUCCAGCGAACUUAAAUCCCGUCGUAGCCACCA
DNA 1: CAATCTGAATTCCGGTCTCCC
DNA 2: TGGTGGCTACGACGGGATT
B2: UGUGGGU (DNA:RNA)
RNA: B1 RNA with A25U, C27U, A29G, A30G, C31U
DNA 1: CAATCTGAATTCCGGTCTCCC
DNA 2: TGGTGGCTACGACGGGATT
B3: UGUGUGC (DNA:RNA)
RNA: B1 RNA with A25U, C27U, A29U, A30G
DNA 1: CAATCTGAATTCCGGTCTCCC
DNA 2: TGGTGGCTACGACGGGATT
B4: CACUAUU (DNA:RNA)
RNA: B1 RNA with A25C, G26A, G28U, A30U, C31U
DNA 1: CAATCTGAATTCCGGTCTCCC
DNA 2: TGGTGGCTACGACGGGATT
B5: UGCGGAU (DNA:RNA)
RNA: B1 RNA with A25U, A29G, C31U
DNA 1: CAATCTGAATTCCGGTCTCCC
DNA 2: TGGTGGCTACGACGGGATT
B6: GCACGCC (DNA:RNA)
RNA: B1 RNA with A25G, G26C, C27A, G28C, A29G, A30C
DNA 1: CAATCTGAATTCCGGTCTCCC
DNA 2: TGGTGGCTACGACGGGATT
B7: GAGAAGG (DNA:RNA)
RNA: B1 RNA with A25G, G26A, C27G, G28A, A30G, C31G
DNA 1: CAATCTGAATTCCGGTCTCCC
DNA 2: TGGTGGCTACGACGGGATT
B8: UCCUCGG (DNA:RNA)
RNA: B1 RNA with A25U, G26C, G28U, A29C, A30G, C31G
DNA 1: CAATCTGAATTCCGGTCTCCC
DNA 2: TGGTGGCTACGACGGGATT
B9: UGUAACU (DNA:RNA)
RNA: B1 RNA with A25U, C27U, G28A, A30C, C31U
DNA 1: CAATCTGAATTCCGGTCTCCC
DNA 2: TGGTGGCTACGACGGGATT
B10: ACAGGGG (DNA:RNA)
RNA: B1 RNA with G26C, C27A, A29G, A30G, C31G
DNA 1: CAATCTGAATTCCGGTCTCCC
DNA 2: TGGTGGCTACGACGGGATT
B11: GGAUAUU (DNA:RNA)
RNA: B1 RNA with A25G, C27A, G28U, A30U, C31U
DNA 1: CAATCTGAATTCCGGTCTCCC
DNA 2: TGGTGGCTACGACGGGATT
B12: GAGGGCC (DNA:RNA)
RNA: B1 RNA with A25G, G26A, C27G, A29G, A30C
DNA 1: CAATCTGAATTCCGGTCTCCC
DNA 2: TGGTGGCTACGACGGGATT
B13: GGGAUCA (DNA:RNA)
RNA: B1 RNA with A25G, C27G, G28A, A29U, A30C, C31A
DNA 1: CAATCTGAATTCCGGTCTCCC
DNA 2: TGGTGGCTACGACGGGATT
B14: AAGGCAG (DNA:RNA)
RNA: B1 RNA with G26A, C27G, A29C, C31G
DNA 1: CAATCTGAATTCCGGTCTCCC
DNA 2: TGGTGGCTACGACGGGATT
B15: CUCAGCC (DNA:RNA)
RNA: B1 RNA with A25C, G26U, G28A, A29G, A30C
DNA 1: CAATCTGAATTCCGGTCTCCC
DNA 2: TGGTGGCTACGACGGGATT
B16: GAGUCCA (DNA:RNA)
RNA: GGGAGACCGGAAUUCAGAUUGUCCGAGUCCAUUAAAUCCCGUCGUAGCCACCA
DNA 1: CAATCTGAATTCCGGTCTCCC
DNA 2: TGGTGGCTACGACGGGATT
B17: UGUUCGU (DNA:RNA)
RNA: B16 RNA with G25U, A26G, G27U, C30G, A31U
DNA 1: CAATCTGAATTCCGGTCTCCC
DNA 2: TGGTGGCTACGACGGGATT
B18: GUAUAAG (DNA:RNA)
RNA: B1 RNA with A25G, G26U, C27A, G28U, C31G
DNA 1: CAATCTGAATTCCGGTCTCCC
DNA 2: TGGTGGCTACGACGGGATT
B19: UUACACU (DNA:RNA)
RNA: B1 RNA with A25U, G26U, C27A, G28C, A30C, C31U
DNA 1: CAATCTGAATTCCGGTCTCCC
DNA 2: TGGTGGCTACGACGGGATT
B20: CGAGAGA (DNA:RNA)
RNA: B1 RNA with A25C, C27A, A30G, C31A
DNA 1: CAATCTGAATTCCGGTCTCCC
DNA 2: TGGTGGCTACGACGGGATT
B21: GGAAGUC (DNA:RNA)
RNA: B1 RNA with A25G, C27A, G28A, A29G, A30U
DNA 1: CAATCTGAATTCCGGTCTCCC
DNA 2: TGGTGGCTACGACGGGATT
B22: UGGCAAU (DNA:RNA)
RNA: B1 RNA with A25U, C27G, G28C, C31U
DNA 1: CAATCTGAATTCCGGTCTCCC
DNA 2: TGGTGGCTACGACGGGATT
B23: AGUCCAC (DNA:RNA)
RNA: B1 RNA with C27U, G28C, A29C
DNA 1: CAATCTGAATTCCGGTCTCCC
DNA 2: TGGTGGCTACGACGGGATT
B24: UAGGAAC (DNA:RNA)
RNA: B1 RNA with A25U, G26A, C27G
DNA 1: CAATCTGAATTCCGGTCTCCC
DNA 2: TGGTGGCTACGACGGGATT
B25: UUUAACU (DNA:RNA)
RNA: B1 RNA with A25U, G26U, C27U, G28A, A30C, C31U
DNA 1: CAATCTGAATTCCGGTCTCCC
DNA 2: TGGTGGCTACGACGGGATT
B26: ACUCAUA (DNA:RNA)
RNA: B1 RNA with G26C, C27U, G28C, A30U, C31A
DNA 1: CAATCTGAATTCCGGTCTCCC
DNA 2: TGGTGGCTACGACGGGATT
B27: CUCAAAG (DNA:RNA)
RNA: B1 RNA with A25C, G26U, G28A, C31G
DNA 1: CAATCTGAATTCCGGTCTCCC
DNA 2: TGGTGGCTACGACGGGATT
B28: UAACAUU (DNA:RNA)
RNA: B1 RNA with A25U, G26A, C27A, G28C, A30U, C31U
DNA 1: CAATCTGAATTCCGGTCTCCC
DNA 2: TGGTGGCTACGACGGGATT
B29: GAAGGUU (DNA:RNA)
RNA: B16 RNA with G27A, U28G, C29G, C30U, A31U
DNA 1: CAATCTGAATTCCGGTCTCCC
DNA 2: TGGTGGCTACGACGGGATT
B30: UUGACUA (DNA:RNA)
RNA: B16 RNA with G25U, A26U, U28A, C30U
DNA 1: CAATCTGAATTCCGGTCTCCC
DNA 2: TGGTGGCTACGACGGGATT
B31: GCAAAAU (DNA:RNA)
RNA: B1 RNA with A25G, G26C, C27A, G28A, C31U
DNA 1: CAATCTGAATTCCGGTCTCCC
DNA 2: TGGTGGCTACGACGGGATT

What follows are binders tested against T1, RBFOX1 RRM (assay: EMSA; HiTS-Eq, 1 nM pool, 10 min; buffer printed only for the single-RNA assays: 10 mM Tris pH 7.5, 150 mM NaCl, 3.4 mM EDTA, 0.001% NP-40, 30 C). Conditions: tags: His6 N-terminal (pET28a); label: 5' 32P.
Outline: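 A pool of RNA with 7 randomized nucleotides, 5′-radiolabelled and with DNA-annealed flanks, was equilibrated at 1 nM for 10 min in 50 µL with purified RbFox RRM, wild type or mutant, across increasing protein concentrations. Free RNA was separated by 8% native PAGE, excised, reverse-transcribed, barcoded by PCR and sequenced. Relative association constants were obtained from read-count changes of each RNA species versus the control reaction and normalised to the cognate motif.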
In the case of B1, the binding signal is reported as 0.00728 KA relative to UGCAUGU.
For B2, the binding signal was 0.0124 KA relative to UGCAUGU.
With B3 the binding signal was 0.0333 KA relative to UGCAUGU.
With B4 the binding signal was 0.00147 KA relative to UGCAUGU.
B5 was tested, and the binding signal was 0.0154 KA relative to UGCAUGU.
For B6, the binding signal was 0.0291 KA relative to UGCAUGU.
With B7 the binding signal was 0.0122 KA relative to UGCAUGU.
For B8, the binding signal was 0.012 KA relative to UGCAUGU.
For B9, the binding signal was 0.0125 KA relative to UGCAUGU.
For B10, the binding signal was 0.00957 KA relative to UGCAUGU.
For B11, the binding signal was 0.00776 KA relative to UGCAUGU.
With B12 the binding signal was 0.015 KA relative to UGCAUGU.
With B13 the binding signal was 0.0351 KA relative to UGCAUGU.
In the case of B14, the binding signal is reported as 0.00951 KA relative to UGCAUGU.
In the case of B15, the binding signal is reported as 0.00554 KA relative to UGCAUGU.
With B16 the binding signal was 0.00503 KA relative to UGCAUGU.
In the case of B17, the binding signal is reported as 0.0328 KA relative to UGCAUGU.
With B18 the binding signal was 0.00787 KA relative to UGCAUGU.
In the case of B19, the binding signal is reported as 0.00207 KA relative to UGCAUGU.
In the case of B20, the binding signal is reported as 0.0113 KA relative to UGCAUGU.
For B21, the binding signal was 0.0165 KA relative to UGCAUGU.
With B22 the binding signal was 0.0132 KA relative to UGCAUGU.
B23 was tested, and the binding signal was 0.000683 KA relative to UGCAUGU.
With B24 the binding signal was 0.00731 KA relative to UGCAUGU.
With B25 the binding signal was 0.00774 KA relative to UGCAUGU.
B26 was tested, and the binding signal was 0.00097 KA relative to UGCAUGU.
In the case of B27, the binding signal is reported as 0.00164 KA relative to UGCAUGU.
For B28, the binding signal was 0.00574 KA relative to UGCAUGU.
With B29 the binding signal was 0.0161 KA relative to UGCAUGU.
For B30, the binding signal was 0.00893 KA relative to UGCAUGU.
With B31 the binding signal was 0.00418 KA relative to UGCAUGU.
